Assay results from the supplement of paper PMC11417369.
The list shows a part of the results.

Test system: PfAP2-HC AP2 domain (GST-tagged)
Experiment: gcPBM binding intensity (ln(normalized median fluorescence intensity)); higher = stronger DNA binding
Procedure, shortened: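 GST-tagged P. falciparum DNA-binding domains, expressed in E. coli (about 25 μg on average), were applied for 1 h to an Agilent 4 × 180k array of primer-extended double-stranded 36-bp intergenic genomic probes plus negative controls. The binding buffer was 1× PBS with 1% milk, 0.2 mg/ml BSA, 0.5% salmon testes DNA and 0.03% Triton X-100. Bound protein was detected with Alexa488 anti-GST antibody and scanned at 488 nm. Binding intensity is the highest Masliner-normalised natural-log median intensity across replicate spots of either probe orientation.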

Sequence | gcPBM binding intensity (ln)
CGAAATATTATGTACGCACACACATTTTTAATATAT [CACACA_site3852] | 10.1
TTTTGGAATTTTAGCTGTACTTTTCCTATTTTGTAT [XGTACX_site7679] | 9.99
TTCTTTTCTTCTACATGTACAAATATTATATATATA [XGTACX_site2996] | 9.97
TGAAACCATAAAGAATGTACACAGCGGTATAAGTTA [XGTACX_site674] | 9.8
TTAATATATTTAAATATATATAAAATATATAATATG [CACACA_negctrl_site880] | 9.52
TTTTAAATAATACATACATGCATATATACACATATA [TGCATGCA_site8] | 9.6
AATAAAATAAGAAGCACACAAATATTATATATAAAA [CACACA_site3980] | 9.93
TCTTATTTAAAAATAGCACACATTATGTATATATAT [CACACA_site2822] | 9.84
AGCTCGGAAAAATTAGCATGCAAAAAAAAAAAAAAA [TGCATGCA_site658] | 9.34
TATATAACTGTCTTCACACACACATATAAATAAATA [CACACA_site7317] | 10.2
TATTTCACAACTTGTCGTACATTAATTGTATTATTT [XGTACX_site997] | 10.1
ATTATTATTAATAGTACACACTATGGCATTTCAATA [CACACA_site5388] | 9.69
TTAGGTGTATATAATTGTACATTTTGGAAATTATAC [XGTACX_site5492] | 9.46
ATCTTTCATCTACCAAGTACAAATTACTTTTTTTTT [XGTACX_site7001] | 9.9
TTTTGTTATTATAAATAGTAACATTTGTGAATATAT [TGCATGCA_negctrl_site132] | 9.42
AAGACATTTTTTTGTTGTACGTCTTCATTTATTGTA [XGTACX_site2890] | 9.69
AACAAATAAAAAAAAATAAAAATAAAAATAAAAAAA [XGTACX_negctrl_site451] | 9.57
TTTAAAATTATAAGGATTAAAAAAAAAAAAAATAAA [CACACA_negctrl_site114] | 9.4
AAGAATTATATTAATAGTACATATATATTAATTTAT [XGTACX_site5713] | 9.52
TTATTTATGAAGTATACACACAATATAGATTTATAT [CACACA_site6703] | 9.64
AATATTACAATTTGGTGTACAGGTGCACATGCCTCA [XGTACX_site1730] | 9.61
TCTACAATTTTAATTACACACTATAAAAAAGAAAGA [CACACA_site5624] | 9.56

Sequence | gcPBM binding intensity (ln)
TAGCTTATAAGATATGCACACACAACACTTACAAAA [CACACA_site8174] | 10.8
ATAATGAAAACAAGCACACATACATAAAATAAAATA [CACACA_site3257] | 10.5
ATGGAAGGATAATAAAAACCTTTACCTTTCTGTTTA [GTGCAC_negctrl_site380] | 9.45
ATAAATTTTTAAACAGCACACATAAATATAATATAT [CACACA_site8691] | 9.78
ATGATTTCACAAGACACACACATACAAATTTATATA [CACACA_site3909] | 10.2
TATTTTATATTTTATGCACACTTATAAGAAATATGT [CACACA_site5647] | 9.68
TTAATATATTATCTGGTGCATAAACACGTTATACCT | 9.67
CAGTATTACATGAGGACACACACAAAAAAAATATAT [CACACA_site8156] | 10.3
CAAGCTTTTTCCTTTACACACATTAGTTATTTATAT [CACACA_site6781] | 10.1
ATAGGTTCCCAAAATGCACACCAATGAAATTATTTA [CACACA_site8081] | 9.61
ATATTATTTTAAAGTACACACATATATTAAGATATA [CACACA_site5306] | 9.68
CTGTAAAAAATATAAACACACATAGAGATATATAAA [CACACA_site6292] | 9.84
TTTAATGTTACTCCTTGTACACAAAATAGTGTTATA [XGTACX_site8416] | 9.72
TAAGTATATTTTATATGTACTTATATATTTAATTTT [XGTACX_site4615] | 9.38
TATTAATATGGTAATACACACTAATATACTTTTGTT [CACACA_site6860] | 9.9
ATATATATATATATATGTACGTATTCATAAACAACA [XGTACX_site4282] | 9.79
CAAAATGTTTCTCATTGTACACAAAATAAATGTCCT [XGTACX_site6798] | 9.49
TAATGAATTTAAATTTTAAAATTAATAAAAAAAATA [TGCATGCA_negctrl_site15] | 9.42
ATACATATGTATATTTGTACATATTAGACAATCTTA [XGTACX_site6706] | 9.37
ATTAGTAAATTTATATGTACACATTGTTATTTTATA [XGTACX_site1177] | 9.75
ACATTTACAAGGAAAGTGCATATAAGAAAAATAAAA [GTGCAC_site9587] | 9.66
ATTCTATTATAATACACACCCAAATATTAAAAAGAT [CACACA_site2960] | 10.2

Sequence | gcPBM binding intensity (ln)
CCACATGATATGATTACACACATATATATATTTACA [CACACA_site164] | 9.88
TATTATATATATATATGTACATATATATGCTAAAAA [XGTACX_site5297] | 9.66
GATGTTGCAAAATTCTGTACATATAAATGTATACAT [XGTACX_site5009] | 9.64
TATTTATTAAAACACACACACACACCCACAAAATAA [CACACA_site241] | 10.5
ATAATATATATATAAACACACAAAAAAAATTATATA [CACACA_site1534] | 9.86
TTATGTATTCATTTTTTTTAAGCACCCCAAAATGAT [CACACA_negctrl_site1344] | 9.39
ATTTTTTTTTATGATACACACTTGGATAATTAAAAC [CACACA_site4473] | 9.55
TTATTCATTTTTATTTGTACATAATTATATGAAATT [XGTACX_site6389] | 9.58
TTTTATATTTTATGCACACTTATAAGAAATATGTAC [CACACA_site3040] | 9.65
GGAAAAAAAAATAAATGTACGAATTAACATATCAAA [XGTACX_site5653] | 9.54
ACACAAGCACACAAATGTACATATATATATATATAT [XGTACX_site5146] | 9.95
TTATTTTCCCTTTGTGCATGCAGTTTACTTTTTGTG [TGCATGCA_site993] | 9.79
ACTTGTAAGAGACACACACACACACGGATATAAATA [CACACA_site6517] | 10.7
ACACATATATTAAATGTGCACTGAAATATGCATATA [GTGCAC_site9936] | 9.72
CAAAATAAAAATAACACACACATTTATTTATATACA [CACACA_site6679] | 10.1
ATATATGTATATTTATGTACGTATTCCTGTATAGTC [XGTACX_site5763] | 9.93
TGTGTAGGGGATATTCTACTTTAAAAATAAATATAT [CACACA_negctrl_site207] | 9.67
TATAAAAGATTGGAATGTACATAAGAAAAAAATATA [XGTACX_site5028] | 9.74
AATCATATTAGTATGGTGCAACATATATAAATATAT | 9.71
GGCCCAACTTCTTCTGACGAAAACGTAAATTGTGTG [XGTACX_negctrl_site533] | 9.71
TTCAAGATTTATTATACACACATATTAATATTTATA [CACACA_site6413] | 9.79
GTAACATTTTAAATATATACATATAATGTATTTATA [GTGCAC_negctrl_site344] | 9.63

Sequence | gcPBM binding intensity (ln)
ATTAAACCGTGGGAGCACACACACACACACACACAT [TGCATGCA_negctrl_site72] | 10.9
TGTTGTATCAATTTTTGTACATAACACATATGTATA [XGTACX_site3666] | 9.75
ATATATATATTATGGGGTACAAACATCAAAAGATTT [XGTACX_site3944] | 9.65
ATTAATTAAAAGGGAACACATAGAAATTATAAAACA [GTGCAC_negctrl_site420] | 9.71
AATGGTATAATCAATACACACATAATATATATATTG [CACACA_site1658] | 9.8
TTAAGATATGTATATCGTACATGACATTAAAAATTT [XGTACX_site3352] | 9.31
TAAAAAAAATACAAAAGTACACAAAATTATACGTTA [XGTACX_site4656] | 9.75
AAATAAATACACATATGTACATATTTTATTTTATTT [XGTACX_site2357] | 9.71
TTGTTAAAAGTATCCATTCTTTATTACTTTTGTTTA [XGTACX_negctrl_site532] | 9.61
TGTACCTTATTAATATATTTAACTCGCCTTATATAC [XGTACX_negctrl_site289] | 9.82
ATTGGGTACAAATACACACACATATATATATTAATA [CACACA_site2376] | 10.3
TCGTAAACATATTGAAAAATATAAAAAGGGGTAATA [CACACA_negctrl_site619] | 9.66
CAAATATAAATATATACATGCATCTATCTATATAAA [TGCATGCA_site369] | 9.53
AATCAAAAATCAAACGCATGTAGTATAATAGATAAG [TGCATGCA_site753] | 9.86
AAATTGTAGCACCAAGCATGCTAAAAGGACATATGA [TGCATGCA_site717] | 9.88
AAATTATATCATTTATTTTTTTATATTTTTTATATT [CACACA_negctrl_site685] | 9.63
AATTTCCTTTTTTAAAGTACACAAAAGTTCACTTTG [XGTACX_site4460] | 9.45
TATAATTTATTAAGGGGTACATATATTTCATGATAA [XGTACX_site5141] | 9.46
AAGATTAAAAATTGCACACAAAAATATATTTTCTAT [CACACA_site1305] | 9.93
TAGTATAAAATTATGTGTACACAAATATAACTTTTC [XGTACX_site5971] | 9.79
AAAAAAAAAAAAAGGTGTACAAGTATAATTACATAA [XGTACX_site534] | 9.77
TATTTATTGTGATACTTTTATTGTTTAATGATTAAA [CACACA_negctrl_site495] | 9.54
